Among all 410,000 compounds or so, about 7,200 (1.8%) were called active. Inconclusive means that the source gave no clear call. Such entries were picked first, then a sample of the others. Calls come from the whole dose curve; as a rule, active = well fitted activation curve with a large enough effect; inconclusive = small, poorly fitted or top-dose-only effect, or another doubt; inactive = no such curve, though single readings can be large or run the other way. Where the call is inconclusive, the potency comes from a doubtful curve fit.
experiment: qHTS of TDP-43 Inhibitors; details: TDP-43 expressing yeast growth rescue, BacTiter-Glo, 24 h; growth rescue (activation): at 46.1 µM (top of the series) unless noted; note: nearly all actives have a fitted effect of over 50% in size; for growth rescue (activation): % of control where 0% means no effect
Outline: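 Luminescence from BacTiter-Glo reports growth of TDP-43-expressing yeast after 24 hr at 30 deg C with compound. Cells were raffinose-pregrown to mid-log, then seeded in galactose medium at OD600=0.02.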
Potency is the fitted concentration of half-maximal effect; tags give direction and shape of the fitted curve.

Potency, inconclusive:
O=C(/C=C/c1ccc(-c2cccc([N+](=O)[O-])c2)o1)N1CCOCC1 12.6 µM [activator, partial curve], O=C(Nc1cccc(OC(F)(F)F)c1)C1Cc2c(-c3cccc(F)c3)ccnc2O1 (stereo not drawn) 20 µM [activator, single point], CC1CN(C(=O)CCC(=O)NCc2ccccc2)c2cc(Cl)ccc2O1 (stereo not drawn) 8.91 µM [activator, partial curve], S=C1SCN(Cc2ccco2)CN1Cc1ccco1 15.8 µM [activator, single point], Cc1cccc(C)c1NC(=S)NC(=O)CCc1ccccc1 11.2 µM [activator, single point], CC(=O)OC1CCC2(C)C(=CCC3C4CC(=O)N(O)C(=O)C4(C)CCC32)C1 (stereo not drawn) 35.5 µM [activator, single point], CC12CCC(=O)C=C1CCC1C2CCC2(C)C1CCC2(O)C(=O)CO (stereo not drawn) 0.355 µM [activator, full curve, poor fit], CCN1CCN(Cc2ccc(NC(=O)c3cc(NC(=O)c4cc5cccc(OC)c5o4)cc(OC)c3)cc2C(F)(F)F)CC1 11.2 µM [activator, partial curve, poor fit], CCN(CC(=O)Nc1ccc2c(c1)OCCO2)C(=O)/C=C/c1cc(Br)ccc1OC 35.5 µM [activator, single point], COc1ccc(CN2CCc3c([nH]c4ccccc34)C2)c(OC)c1C 22.4 µM [activator, single point], CCN(c1ccccc1)c1ncnc2c1cnn2-c1ccc(OC)cc1 28.2 µM [activator, partial curve], Cc1cnc(NS(=O)(=O)c2ccc(Cl)cc2)c(Br)c1 31.6 µM [activator, single point], Cn1cc(CCCC(=O)NCc2ccc(F)cc2)c2ccccc21 12.6 µM [activator, single point], CCOC(=O)c1ccccc1NC(=O)Cc1c(C(=O)O)n(C)c2ccccc12 11.2 µM [activator, single point], COc1ccccc1CNC(=O)CNC(=O)c1sc2ccccc2c1Cl 22.4 µM [activator, single point], CC1CCN(S(=O)(=O)c2ccc3[nH]ccc3c2)CC1 11.2 µM [activator, single point], COc1ccc(/C=N\NC(=O)c2ccc([N+](=O)[O-])cc2)cc1COc1c(F)c(F)cc(F)c1F 0.562 µM [activator, full curve, poor fit], CCCc1cc(C(=O)OC)c(NC(=O)CCC(=O)O)s1 22.4 µM [activator, single point], O=c1c2ccccc2nc(/C=C/c2c[nH]c3ccccc23)n1-c1ccc([N+](=O)[O-])cc1 0.562 µM [activator, full curve, poor fit], COc1ccc(-c2c(-c3ccsc3)oc3c2C(O)CCC3)cn1 (stereo not drawn) 11.2 µM [activator, partial curve, poor fit], CSCCC(NS(=O)(=O)c1ccc(C)cc1)C(=O)N1CCCCCCC1 (stereo not drawn) 12.6 µM [activator, partial curve], NC(=O)N/N=C/c1ccc(OCc2cccc(Cl)c2)cc1 22.4 µM [activator, partial curve], O=C1CCCC(O)=C1C=Nc1cccc(C(F)(F)F)c1 28.2 µM [activator, partial curve], COc1cccc(CC(=O)Nc2c(C(=O)N3CCN(c4ccccc4)CC3)oc3ccccc23)c1 14.1 µM [activator, partial curve], Cc1cc(NC(=O)CCC2COc3ccccc3O2)no1 (stereo not drawn) 2.82 µM [activator, partial curve], Cc1ncc([N+](=O)[O-])n1CCOC(=O)C12CC3CC(CC(C3)C1)C2 15.8 µM [activator, single point], COc1ccc(C(=O)N(Cc2ccco2)Cc2ccccc2F)cc1Cl 22.4 µM [activator, single point], CC12CCC(C(=O)Nc3ccc(Cl)cc3)([C@H](Br)C1=O)C2(C)C (stereo partly drawn) 22.4 µM [activator, single point], O=C(O)CCc1ccc(-c2ccc(Cl)cc2)n1Cc1ccco1 15.8 µM [activator, single point], COc1ccc(-n2cc3c(-c4cccc(Br)c4)nnc(C)c3n2)cc1 5.62 µM [activator, full curve], COCOCCn1cc(CN2CCS(=O)(=O)N(Cc3ccc(-c4ccc(Cl)cc4)cc3)C(C)C2=O)nn1 (stereo not drawn) 31.6 µM [activator, partial curve], O=C(CCCN1C(=O)c2ccccc2C1=O)N1CCc2ccccc2C1 12.6 µM [activator, partial curve], COc1ccc(NC(=O)c2ccco2)cc1NC(=O)c1cccc(C)c1OC 11.2 µM [activator, partial curve], Cc1ccccc1-n1c(SCC(=O)c2ccccc2)nnc1-c1ccc(F)cc1 17.8 µM [activator, single point], Cc1ccc2c(C)nc(/N=C(\N)NC(=O)N3c4ccccc4Sc4ccccc43)nc2c1 15.8 µM [activator, single point], Cc1cccc(CSc2nnnn2-c2ccccc2)c1 14.1 µM [activator, single point], O=C(O/N=C(/c1ccccc1)c1ccncc1)c1ccc(F)cc1 35.5 µM [activator, single point], O=C(OCC(=O)C12CC3CC(CC(C3)C1)C2)c1cccnc1 35.5 µM [activator, partial curve, poor fit], CN(CC(=O)Nc1c(Cl)cccc1Cl)C(=O)C1=COCCO1 5.62 µM [activator, single point], O=C(COc1ccccc1Br)Nc1ccccc1C(F)(F)F 11.2 µM [activator, partial curve], CCn1c(SC/C=C/c2ccccc2)nnc1-c1cnccn1 28.2 µM [activator, single point], O=C(C1CCCCC1)N(Cc1cccnc1)c1nc2ccc(Cl)cc2s1 1.12 µM [activator, full curve], COc1ccc(NCc2nnc(SCC(=O)Nc3cc(C(F)(F)F)ccc3Cl)o2)cc1 15.8 µM [activator, single point], Cc1cc(C(=O)CSc2nnnn2C)c(C)n1-c1ccc2c(c1)OCCO2 10 µM [activator, partial curve, poor fit]

Potency, inactive:
Fc1ccc(NC(=S)NN=Cc2ccccc2Cl)cc1, CCOc1ccc(CCNC(=O)c2ccc3c(c2)sc2nc(-c4ccc(F)cc4)cn23)cc1OCC, Cc1cccc(CNC(=O)C2CCN(S(=O)(=O)c3ccc4c(c3)CCCN4C(=O)C3CCC3)CC2)c1, Cc1cccc(N2CCN(S(=O)(=O)c3c(C(=O)N4CCC(C)CC4)c(C)n(C)c3C)CC2)c1C, NS(=O)(=O)c1ccc(CNC(=O)c2ccccc2SCC(=O)N2CCCC2)cc1, CCOC(=O)c1ccc(NC(=O)c2noc3c2CCCC3)cc1, CCOc1ccc(-c2cc3nc(C4CCN(C(=O)OC(C)(C)C)CC4)c(C(=O)Nc4cccc(Cl)c4C)cn3n2)cc1, Brc1ccc(-c2cn3cc(Cc4ccccc4)sc3n2)cc1, Cc1nnc(SCC(=O)Nc2ccc(OC(F)F)c(Cl)c2)n(N)c1=O, CCOC(=O)C1CCN(C(=O)c2cccc(N3C(=O)NC4CC3(C)Oc3ccc(C)cc34)c2)CC1 (stereo not drawn), CCOC(=O)C1=C(CN2CCOCC2)NC(=O)NC1c1cccc([N+](=O)[O-])c1 (stereo not drawn), C#CCONC(=O)c1cc(OCC(F)(F)F)ccc1OCC(F)(F)F, N#Cc1ccc(C(C(=O)Nc2ccc3c(c2)OCCO3)n2c(=O)c(-c3ccco3)nc3ccccc32)cc1 (stereo not drawn), CCN(C(=O)CSc1nc(-c2ccc(C(C)C)cc2)no1)c1ccccc1, CCCCn1c(SCC(=O)NCc2ccco2)nc2c(sc3ccccc32)c1=O, CCC(C)(C)n1nnnc1C(c1cc2cccc(C)c2[nH]c1=O)N1CCCC1 (stereo not drawn), O=C(NC1(Cc2ccccc2)CCN(CCCc2ccccc2)C1=O)c1ccccc1 (stereo not drawn)

Potency, active:
CCOC(=O)CS(=O)(=O)c1nc(-c2ccc(F)cc2)cc(C(F)(F)F)n1 22.4 µM, N#Cc1c(N2CCSCC2)nsc1-c1ccccc1Cl 10 µM, COc1ccc(-c2nc(NC(=O)Cn3ccc(C(F)(F)F)n3)sc2C)cc1 35.5 µM, COc1ccc(CC(=O)NC2CCCc3ccccc32)cc1 (stereo not drawn) 17.8 µM, Cc1cc(NC(=O)COC(=O)c2c(Cl)cccc2Cl)no1 15.8 µM, CC(C)c1ccc(-n2cnn(-c3ncccc3[N+](=O)[O-])c2=O)cc1 11.2 µM

Growth rescue (activation), inconclusive:
O=C(Cn1sc2ccccc2c1=O)Nc1ccc(F)cc1 -91.8% [activator]
